{
  "sequences": {"note": "By UniProt entry, the sequences of proteins in these tests, tags left out. Where a name states a change or a piece, a line headed by the entry shows the natural chain unless it says otherwise. Residues count along the entry.", "UniProt P62068": "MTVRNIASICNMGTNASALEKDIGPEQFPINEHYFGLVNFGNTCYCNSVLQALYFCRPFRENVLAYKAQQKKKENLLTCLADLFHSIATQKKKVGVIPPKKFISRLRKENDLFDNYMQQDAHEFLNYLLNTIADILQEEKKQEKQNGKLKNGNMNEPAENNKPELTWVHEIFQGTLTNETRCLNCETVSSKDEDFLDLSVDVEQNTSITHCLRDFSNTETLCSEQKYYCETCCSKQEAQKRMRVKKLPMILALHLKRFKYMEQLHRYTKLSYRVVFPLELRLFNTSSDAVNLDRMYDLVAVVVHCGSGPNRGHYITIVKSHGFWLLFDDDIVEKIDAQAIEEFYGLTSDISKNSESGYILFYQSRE", "USP46 (in the crystallised USP46-WDR48-WDR20 complex)": "residues 24-366 of P62068", "UniProt Q8TAF3": "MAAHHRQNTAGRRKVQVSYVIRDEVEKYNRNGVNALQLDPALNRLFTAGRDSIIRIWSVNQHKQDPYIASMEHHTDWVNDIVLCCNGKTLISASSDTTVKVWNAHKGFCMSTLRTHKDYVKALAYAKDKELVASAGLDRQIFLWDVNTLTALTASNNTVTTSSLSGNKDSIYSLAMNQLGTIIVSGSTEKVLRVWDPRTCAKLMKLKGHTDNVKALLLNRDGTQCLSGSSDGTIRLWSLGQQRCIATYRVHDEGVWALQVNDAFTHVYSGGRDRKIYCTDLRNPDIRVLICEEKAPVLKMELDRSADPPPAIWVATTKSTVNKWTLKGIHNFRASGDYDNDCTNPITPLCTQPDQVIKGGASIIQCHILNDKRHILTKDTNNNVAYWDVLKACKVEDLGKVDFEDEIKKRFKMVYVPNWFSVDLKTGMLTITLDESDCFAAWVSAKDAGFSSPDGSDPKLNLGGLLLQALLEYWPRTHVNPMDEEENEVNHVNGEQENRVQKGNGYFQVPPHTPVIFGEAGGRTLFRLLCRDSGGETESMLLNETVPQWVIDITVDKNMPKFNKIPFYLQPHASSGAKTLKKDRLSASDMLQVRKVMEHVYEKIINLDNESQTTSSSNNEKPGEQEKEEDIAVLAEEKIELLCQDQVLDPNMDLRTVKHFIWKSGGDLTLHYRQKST"},
  "source": "paper PMC6796834",
  "molecules": {"B1": {"name": "WT WDR20 (Co-IP in 293T cells) (protein, UniProt Q8TBZ3 1-569)", "chain": "MATEGGGKEMNEIKTQFTTREGLYKLLPHSEYSRPNRVPFNSQGSNPVRVSFVNLNDQSGNGDRLCFNVGRELYFYIYKGVRKAADLSKPIDKRIYKGTQPTCHDFNHLTATAESVSLLVGFSAGQVQLIDPIKKETSKLFNEERLIDKSRVTCVKWVPGSESLFLVAHSSGNMYLYNVEHTCGTTAPHYQLLKQGESFAVHTCKSKSTRNPLLKWTVGEGALNEFAFSPDGKFLACVSQDGFLRVFNFDSVELHGTMKSYFGGLLCVCWSPDGKYIVTGGEDDLVTVWSFVDCRVIARGHGHKSWVSVVAFDPYTTSVEEGDPMEFSGSDEDFQDLLHFGRDRANSTQSRLSKRNSTDSRPVSVTYRFGSVGQDTQLCLWDLTEDILFPHQPLSRARTHTNVMNATSPPAGSNGNSVTTPGNSVPPPLPRSNSLPHSAVSNAGSKSSVMDGAIASGVSKFATLSLHDRKERHHEKDHKRNHSMGHISSKSSDKLNLVTKTKTDPAKTLGTPLCPRMEDVPLLEPLICKKIAHERLTVLIFLEDCIVTACQEGFICTWGRPGKVVSFNP"}, "B2": {"name": "N41A WDR20 mutant (protein, UniProt Q8TBZ3 1-569)", "chain": "B1 chain with N41A"}, "B3": {"name": "E534A WDR20 mutant (protein, UniProt Q8TBZ3 1-569)", "chain": "B1 chain with E534A"}, "B4": {"name": "N41A/E534A WDR20 mutant (protein, UniProt Q8TBZ3 1-569)", "chain": "B1 chain with N41A, E534A"}, "B5": {"name": "WDR20 (in the crystallised USP46-WDR48-WDR20 complex) (protein, UniProt Q8TBZ3 1-569)", "chain": "B1 chain"}},
  "key": {"[1]": {"biological_target": "USP46 (in the crystallised USP46-WDR48-WDR20 complex) (UniProt P62068)", "experiment": "crystal structure; USP46-WDR48-WDR20 complex prepared and crystallised, 3.1 Å resolution, one complex per asymmetric unit; both purified"}, "T347A/S348A USP46 mutant": {"biological_target": "T347A/S348A USP46 mutant (UniProt P62068)", "experiment": "co-IP; Co-IP assay in 293T cells with WT and mutant USP46 (Fig. 1d) and WT and mutant WDR20 (Fig. 1e)"}, "[2]": {"biological_target": "WT USP46 (Co-IP in 293T cells) (UniProt P62068)", "experiment": "co-IP; Co-IP assay in 293T cells with WT and mutant USP46 (Fig. 1d) and WT and mutant WDR20 (Fig. 1e)"}, "E279R/D293R USP46 mutant": {"biological_target": "E279R/D293R USP46 mutant (UniProt P62068)", "experiment": "co-IP; Co-IP assay in 293T cells with WT and mutant USP46 (Fig. 1d) and WT and mutant WDR20 (Fig. 1e)"}, "E279R USP46 mutant": {"biological_target": "E279R USP46 mutant (UniProt P62068)", "experiment": "co-IP; Co-IP assay in 293T cells with WT and mutant USP46 (Fig. 1d) and WT and mutant WDR20 (Fig. 1e)"}, "V275D/F283A USP46 mutant": {"biological_target": "V275D/F283A USP46 mutant (UniProt P62068)", "experiment": "co-IP; Co-IP assay in 293T cells with WT and mutant USP46 (Fig. 1d) and WT and mutant WDR20 (Fig. 1e)"}, "E186K USP46 mutant": {"biological_target": "E186K USP46 mutant (UniProt P62068)", "experiment": "co-IP; Co-IP assay in 293T cells with WT and mutant USP46 (Fig. 1d) and WT and mutant WDR20 (Fig. 1e)"}, "D293R USP46 mutant": {"biological_target": "D293R USP46 mutant (UniProt P62068)", "experiment": "co-IP; Co-IP assay in 293T cells with WT and mutant USP46 (Fig. 1d) and WT and mutant WDR20 (Fig. 1e)"}, "[3]": {"biological_target": "WDR48 (in the crystallised USP46-WDR48-WDR20 complex) (UniProt Q8TAF3)", "experiment": "crystal structure; USP46-WDR48-WDR20 complex prepared and crystallised, 3.1 Å resolution, one complex per asymmetric unit; both purified"}},
  "note": "Where a chain is given by its changes, count along the chain named. In names and notes the source's numbering stands. These are yes or no findings as the source states them, for the method shown. For some assays here: Binding seen in cells or lysates may run through a third protein. Some entries that bind do so weakly or less than the wild type.",
  "data": [
    {"molecule": "WDR48 (in the crystallised USP46-WDR48-WDR20 complex) (from UniProt Q8TAF3 1-580)", "values": [
      {"measurement": "binding", "setting": "[1]", "result": "binds"}
    ]},
    {"molecule": "WDR48 (Co-IP in 293T cells) (from UniProt Q8TAF3 1-677)", "values": [
      {"measurement": "binding", "setting": "T347A/S348A USP46 mutant", "result": "binds"},
      {"measurement": "binding", "setting": "[2]", "result": "binds"},
      {"measurement": "binding", "setting": "E279R/D293R USP46 mutant", "result": "binds"},
      {"measurement": "binding", "setting": "E279R USP46 mutant", "result": "binds"},
      {"measurement": "binding", "setting": "V275D/F283A USP46 mutant", "result": "binds"},
      {"measurement": "binding", "setting": "E186K USP46 mutant", "result": "no binding"},
      {"measurement": "binding", "setting": "D293R USP46 mutant", "result": "binds"}
    ]},
    {"molecule": "B1", "values": [
      {"measurement": "binding", "setting": "T347A/S348A USP46 mutant", "result": "binds"},
      {"measurement": "binding", "setting": "[2]", "result": "binds"},
      {"measurement": "binding", "setting": "E279R/D293R USP46 mutant", "result": "binds"},
      {"measurement": "binding", "setting": "E279R USP46 mutant", "result": "binds"},
      {"measurement": "binding", "setting": "V275D/F283A USP46 mutant", "result": "no binding"},
      {"measurement": "binding", "setting": "E186K USP46 mutant", "result": "binds"},
      {"measurement": "binding", "setting": "D293R USP46 mutant", "result": "binds"}
    ]},
    {"molecule": "B2", "values": [
      {"measurement": "binding", "setting": "[2]", "result": "binds"}
    ]},
    {"molecule": "B3", "values": [
      {"measurement": "binding", "setting": "[2]", "result": "binds"}
    ]},
    {"molecule": "B4", "values": [
      {"measurement": "binding", "setting": "[2]", "result": "binds"}
    ]},
    {"molecule": "B5", "values": [
      {"measurement": "binding", "setting": "[1]", "result": "binds"},
      {"measurement": "binding", "setting": "[3]", "result": "binds"}
    ]}
  ]
}
